# Experimental data reported in the supplement of paper PMC3334620.
# Over roughly 33,000 sequences, “E-score (-0.5 to 0.5)” has its median near -0.012; the highest 2% begin near 0.27. The list shows a part of the results.
# Target: T1, Vhr1 (UniProt P40522)
# T1 sequence: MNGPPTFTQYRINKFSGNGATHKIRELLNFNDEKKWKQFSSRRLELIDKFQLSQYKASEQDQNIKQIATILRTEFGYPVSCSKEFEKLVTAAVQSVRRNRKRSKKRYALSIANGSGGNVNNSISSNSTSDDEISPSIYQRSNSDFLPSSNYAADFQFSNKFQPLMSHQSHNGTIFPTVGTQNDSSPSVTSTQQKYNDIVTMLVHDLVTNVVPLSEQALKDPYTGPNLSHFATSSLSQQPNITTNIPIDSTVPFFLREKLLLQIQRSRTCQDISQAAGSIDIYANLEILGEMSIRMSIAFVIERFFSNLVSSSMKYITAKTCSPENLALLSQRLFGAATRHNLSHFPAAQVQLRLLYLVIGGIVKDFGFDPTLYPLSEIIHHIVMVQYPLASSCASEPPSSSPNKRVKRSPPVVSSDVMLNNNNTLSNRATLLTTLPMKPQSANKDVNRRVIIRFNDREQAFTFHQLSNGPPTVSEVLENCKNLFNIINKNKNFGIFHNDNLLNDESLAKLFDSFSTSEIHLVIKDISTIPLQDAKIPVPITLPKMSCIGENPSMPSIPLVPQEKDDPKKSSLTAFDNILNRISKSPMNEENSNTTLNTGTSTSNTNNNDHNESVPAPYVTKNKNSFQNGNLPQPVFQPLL
# Assay: PBM E-score (8-mer binding enrichment) (E-score (-0.5 to 0.5)); higher = stronger / more preferred TF binding; most listed sequences are background and not binding sites
# Details: protein concentration: 200 nM; construct: GST-full length
# Protocol: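 Universal 'all 10-mer' protein binding microarrays (Agilent AMADID 015681) probed with GST-tagged S. cerevisiae TFs (full-length or DBD) made by in vitro transcription/translation (PURExpress), about 100-200 nM. Bound TF was detected with fluorescent anti-GST. Each ungapped 8-mer (which stands for itself and its reverse complement) is scored by the PBM enrichment score (E-score), a modified Wilcoxon-Mann-Whitney statistic from -0.5 to +0.5, computed with the Universal PBM Analysis Suite. Scale: above 0.35 generally sequence-specific binding.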
row,Sequence,PBM E-score
1,CGTGCTCA,0.0243
2,CCACGACG,0.0688
3,CGGCCGCC,-0.0207
4,AATTGTGC,0.00058
5,CCTATCGA,0.0031
6,CCATTGTC,-0.0467
7,AAGTGCGG,-0.17
8,ATTGGGGG,-0.23
9,AGCCGTAG,0.0364
10,GCCAGTAA,-0.141
11,ACATGTTC,-0.0547
12,ACAATAGA,0.0663
13,CGCACTCA,-0.0217
14,CGATAGAG,-0.192
15,ATTCCAAA,-0.0728
16,TGACCACA,-0.0342
17,GGCCGGCA,-0.0051
18,AAACATAG,-0.124
19,ACTTCTAG,-0.283
20,CAGCGCCA,-0.0392
21,CAATTATC,0.113
22,GTAGCGAA,-0.027
23,ATTCGCCG,0.152
24,CGCGTAAG,-0.0896
25,CGACACCA,0.168

row,Sequence,PBM E-score
1,CCGCTCCC,-0.222
2,AGACTCAC,0.399
3,ATAAGTAT,-0.0454
4,CTTCGTTA,-0.206
5,CAGGTTAG,0.0401
6,ATATCTAG,0.0739
7,AGGGTTTA,-0.0923
8,TCTTTAAA,-0.151
9,ATTGAGGG,-0.207
10,CAGCTCTC,-0.147
11,CAGCAGTA,0.0508
12,GCATTACC,-0.193
13,TAGGACTA,0.066
14,AAATCTTG,-0.0498
15,AAGACGGG,-0.0364
16,GACCGTAA,0.0036
17,AGACGGAC,0.014
18,GCCTAAGC,-0.316
19,ACTGGAAG,-0.0451
20,GAACGCCC,-0.278
21,ACGAGCGC,-0.128
22,AATTTGGC,-0.281
23,AATTACGT,-0.106
24,ATGTGATA,0.0863
25,ATCCCCCA,-0.291

row,Sequence,PBM E-score
1,ACATATGG,0.201
2,GGCGCAGA,0.104
3,CTACAACC,0.00353
4,ACGGTAGC,0.0102
5,CTCGCTTC,-0.169
6,CACAATAG,0.0593
7,TAGCATAA,-0.185
8,GGCCGGAA,0.0659
9,AACGTCGA,0.0261
10,CAAACGTG,-0.0382
11,CTAACAAG,-0.164
12,ACGTTCCT,-0.0273
13,GGAATACA,0.0161
14,ACCAAGAG,0.0991
15,CGGCGCCC,-0.127
16,GAGCTCAA,-0.11
17,ATCGGGGA,0.0201
18,AGCGGATA,0.0445
19,CGGCTCTC,0.0088
20,AGAGTGAA,-0.0205
21,ACGACCAC,0.0873
22,AGAGGCGC,-0.303
23,GGCTAGAA,-0.0859
24,ACGCCCCT,-0.128
25,CCCCACAA,0.0884

row,Sequence,PBM E-score
1,ACATTACG,-0.00945
2,ATGCTTGC,-0.0711
3,CGAAGCTA,-0.171
4,GCAACAAA,-0.0285
5,CCGACAGA,0.215
6,CGCCTCTA,-0.158
7,CTTTGGGA,-0.185
8,CTGTACAG,-0.0141
9,AGGATCCT,-0.0216
10,ATCACCCC,0.199
11,AACTTATC,-0.102
12,GCGCGTCC,-0.0575
13,AGCCCAGA,0.0242
14,CCTAGCCG,-0.175
15,CTAAAAAC,-0.227
16,AAGGGGCG,-0.0512
17,AAGACCAA,-0.0213
18,GCGCTTCA,-0.0639
19,GAGACTGC,0.0756
20,AAACTATG,0.0489
21,ACGTTAAA,-0.236
22,CCCTGCGC,-0.119
23,TCGTGTCA,0.0355
24,ACTGATTA,0.147
25,CGTTAAAG,-0.137

row,Sequence,PBM E-score
1,CGTGCTTC,0.0894
2,CCACGTAG,-0.213
3,AAACCGAT,-0.00695
4,CAGCGGCC,0.107
5,ATGTGGTG,0.227
6,CGTTATAG,-0.103
7,GCGGCTCA,0.206
8,CATTTCTC,-0.0286
9,TGAGAAAA,-0.106
10,GCACTGCC,-0.039
11,AACCCCCA,-0.225
12,GAGGTTCA,-0.106
13,ACAACAGA,-0.122
14,CGTACTTC,0.0221
15,ATAGGCAG,0.0923
16,ACATATCG,0.191
17,TACCCGAA,-0.0342
18,CGCACCTA,-0.0281
19,GAAGTAAA,-0.184
20,CTAGGCGC,-0.0163
21,AGTGAGAC,0.0195
22,TCATGGGA,0.155
23,CGCCAATA,-0.0478
24,ACTTACCT,-0.0556
25,CGACGGCG,0.146

row,Sequence,PBM E-score
1,AATGCCTA,-0.281
2,CACTCCAG,0.0538
3,ACAGCAGC,0.185
4,CAGCTGAG,0.00591
5,CTATACCA,0.0306
6,CGAGTCAG,0.429
7,AGTAGTAT,0.23
8,GGACGTAC,-0.124
9,AACTTGAT,0.124
10,GACCATGA,0.196
11,CTAGTCGA,0.0492
12,ACCAGACA,-0.0188
13,AAAAAGTC,-0.0407
14,AACGACAT,0.0855
15,CAACGAGC,0.0212
16,GTCCAAAA,-0.125
17,AATCGTGC,0.07
18,CTTTCAGA,0.0207
19,AAGGCTGC,-0.0963
20,TGCAGACA,-0.00645
21,TGAATCCA,0.185
22,CTGAACCA,0.245
23,CTCCCCCA,-0.127
24,CCAGGGGC,-0.0839
25,CTCACCTC,0.127

row,Sequence,PBM E-score
1,GATGACAA,-0.00976
2,AGGCGCTC,-0.0954
3,GGCCTCAC,-0.0776
4,AAACTGTG,0.0924
5,ATCTGCTG,-0.0283
6,ATATGCGA,0.0841
7,GCGAACAC,-0.0481
8,TAACTCAA,0.108
9,CCTTGCAG,-0.139
10,ACGGAGGA,-0.115
11,CCACATTA,0.126
12,CGCGAGTA,0.112
13,AACGACGG,0.0615
14,CCTCGGGC,0.0668
15,CATTGTGA,0.177
16,ACCCGGTA,0.0969
17,TGCTTGAA,0.0354
18,GAACGCCA,-0.0323
19,GAGGTTCC,0.0147
20,CCTCTTGC,-0.118
21,CTGAGGTC,-0.0896
22,CAAGTGAC,-0.00136
